Hit rate of the full screen: of about 310,000 compounds, about 14,000 (4.5%) showed an effect of 50% or more. The effect is printed as a negative number. The list shows a part of the results.

Data on 91 molecules can be found in article PMC4336329 (PLoS ONE, 2015).
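Also: peak tail current of the secondary pulse compared with the same well before compound.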

In this assay the target is human ether-à-go-go-related gene (hERG) potassium channel (human, UniProt Q12809). As to the kind of experiment: primary screen, population patch clamp on CHO cells stably expressing hERG.
Sequence of human ether-à-go-go-related gene (hERG) potassium channel (Q12809 whole entry, looked up): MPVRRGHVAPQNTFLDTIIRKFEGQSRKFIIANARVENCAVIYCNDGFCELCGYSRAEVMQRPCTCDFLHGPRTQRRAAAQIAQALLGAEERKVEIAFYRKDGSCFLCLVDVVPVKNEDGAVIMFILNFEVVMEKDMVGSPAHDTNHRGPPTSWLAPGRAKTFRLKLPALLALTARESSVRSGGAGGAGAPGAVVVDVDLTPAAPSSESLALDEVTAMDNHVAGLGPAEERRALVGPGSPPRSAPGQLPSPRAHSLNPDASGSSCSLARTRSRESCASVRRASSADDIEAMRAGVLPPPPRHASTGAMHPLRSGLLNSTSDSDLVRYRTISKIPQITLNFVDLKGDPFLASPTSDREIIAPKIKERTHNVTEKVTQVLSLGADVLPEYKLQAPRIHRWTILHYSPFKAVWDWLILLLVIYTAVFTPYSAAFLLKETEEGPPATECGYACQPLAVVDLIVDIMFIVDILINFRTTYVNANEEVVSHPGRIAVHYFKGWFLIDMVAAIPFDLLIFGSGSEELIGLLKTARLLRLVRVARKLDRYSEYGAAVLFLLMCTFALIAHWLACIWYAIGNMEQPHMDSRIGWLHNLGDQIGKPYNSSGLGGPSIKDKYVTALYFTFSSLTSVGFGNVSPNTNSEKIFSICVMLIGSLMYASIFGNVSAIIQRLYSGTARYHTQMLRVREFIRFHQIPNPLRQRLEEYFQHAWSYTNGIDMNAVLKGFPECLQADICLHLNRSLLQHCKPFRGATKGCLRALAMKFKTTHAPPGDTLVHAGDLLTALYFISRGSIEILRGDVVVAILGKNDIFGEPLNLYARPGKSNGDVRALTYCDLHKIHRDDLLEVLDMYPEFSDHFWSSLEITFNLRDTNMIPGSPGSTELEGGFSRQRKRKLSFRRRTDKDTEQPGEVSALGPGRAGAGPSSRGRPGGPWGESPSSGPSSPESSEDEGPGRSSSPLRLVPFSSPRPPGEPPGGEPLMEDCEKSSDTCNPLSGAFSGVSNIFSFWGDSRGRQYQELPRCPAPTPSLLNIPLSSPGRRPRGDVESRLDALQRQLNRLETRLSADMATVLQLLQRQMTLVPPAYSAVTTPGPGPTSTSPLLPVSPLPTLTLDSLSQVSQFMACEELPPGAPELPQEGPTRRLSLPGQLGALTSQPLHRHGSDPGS
As for `O=C(Nc1ccccc1)N1CCc2ccccc21`, the “hERG current change (%, negative = inhibition) at 10uM” value is recorded as -21.2%.

With `COCCNC(=O)c1onc(CSc2ccc(Cl)cc2)c1C(=O)O`, the “hERG current change (%, negative = inhibition) at 10uM” value is reported as 2.74%. Take `CC(C)Cn1c(=O)c(CCC(=O)Nc2ccc(N3CCOCC3)cc2)nc2cc(Cl)ccc21`: the “hERG current change (%, negative = inhibition) at 10uM” value is on record as 7.84%. On to `O=C(Cc1c(F)cccc1Cl)Nc1cccnc1`, for which the “hERG current change (%, negative = inhibition) at 10uM” value is reported as 8.94%. Under `Cc1cc(C)n(C(=O)c2ccc(NC(=O)C3CC3)cc2)n1` stands 7.72%; under `CC(=O)Nc1nonc1-n1nnc(C(=O)NCc2ccccc2)c1C`, -10.5%. The same measure for `COc1ccc(CCNC(=O)Cn2c(=O)n(CCCC(=O)NCc3ccco3)c(=O)c3sccc32)cc1OC`: 3.98%; for `CC(=O)Nc1ccc(S(=O)(=O)N(c2cccnc2)S(=O)(=O)c2ccc(NC(C)=O)cc2)cc1`: -3.89%; for `O=C(C1=C(O)C(=O)N(CCN2CCOCC2)C1c1ccc([N+](=O)[O-])cc1)c1cc2ccccc2o1` (stereo not shown): 15.6%. On to `Cc1ccc2[nH]c(=O)c(-c3noc(CC(C)C)n3)cc2c1`, for which the “hERG current change (%, negative = inhibition) at 10uM” value was -21.4%. The same measure for `Nc1c(C(=O)Nn2cnnc2)cc([N+](=O)[O-])cc1[N+](=O)[O-]`: -2.74%.

`CCCC(=O)N(c1ccccc1)C1C=CS(=O)(=O)C1` (stereo not shown): the “hERG current change (%, negative = inhibition) at 10uM” value is listed as -3.97%.

As for `Oc1ccc(/C=N/N2CCCCC2)c(O)c1`, the “hERG current change (%, negative = inhibition) at 10uM” value is given as 11%. As for `O=C(/C=C/c1ccccc1)NC(NC(=S)Nc1cccc(Cl)c1)C(Cl)(Cl)Cl` (stereo not shown), the “hERG current change (%, negative = inhibition) at 10uM” value was 3.21%.

`CC(=O)NNC(=O)CN1C(=O)/C(=C/c2ccccc2)SC1=S`: the “hERG current change (%, negative = inhibition) at 10uM” value worked out at 18.9%. Under `CCOC(=O)c1oc2ccc(Br)cc2c1COC(=O)C1=COCCO1` stands 1.47%.

For `CCCN(CCC)C(=O)c1ccc2c(=O)n(Cc3ccco3)c(=S)[nH]c2c1`, the “hERG current change (%, negative = inhibition) at 10uM” value is reported as 3.17%. Consider `NS(=O)(=O)c1ccc(NC(=S)NC(=O)c2cccs2)cc1`, for which the “hERG current change (%, negative = inhibition) at 10uM” value came to 22.3%. The same measure for `COc1ccc(/C=N/NC(=O)c2ccc(COc3ccccc3Cl)o2)c(OC)c1C`: 7.84%. Take `Cc1ccc(NC(=O)c2ccn(C)n2)c(Br)c1`: the “hERG current change (%, negative = inhibition) at 10uM” value stood at 0.15%. The same measure for `CCCCn1c(=O)[nH]c2c(oc3ccccc32)c1=O`: 14.2%. As for `Cc1ccc(-c2cc(=O)[nH][nH]2)c(C)c1`, the “hERG current change (%, negative = inhibition) at 10uM” value is recorded as -2.12%.

For `COC(=O)c1ccc(CSc2nc3ccc(Cl)cc3[nH]2)o1`, the “hERG current change (%, negative = inhibition) at 10uM” value is -17.2%.

For the molecule `CSc1nnc(C)c(/C=C/Nc2ccc(Cl)cc2)n1`, the “hERG current change (%, negative = inhibition) at 10uM” value was 8.3%. `CCN(CCCNC(=O)C1CCN(S(=O)(=O)c2cnc[nH]2)CC1)c1cccc(C)c1`: the “hERG current change (%, negative = inhibition) at 10uM” value is reported as -1.03%. Under `O=C(NCCc1ccccc1)C(=O)NCCC1CCCCN1S(=O)(=O)c1cccs1` (stereo not shown) stands -29.5%; under `Cc1cc(C)c(OCC(=O)Nc2ccc(N3CCOCC3)cc2)c(Br)c1`, 9.1%; under `CC(C)c1csc(CN2CCCC(CNC(=O)c3cccc4ccccc34)C2)n1` (stereo not shown), -8.32%. `O=C(N/N=C/c1cccnc1)c1cccs1`: the “hERG current change (%, negative = inhibition) at 10uM” value amounted to 11%.

As for `CCCCCC(=O)Nc1nc(C)c(-c2csc(Nc3ccccc3OC)n2)s1`, the “hERG current change (%, negative = inhibition) at 10uM” value was 16.6%. `CC(C)CCN1C(Nc2ccccc2)=NC[C@@H]1CC(C)C`: the “hERG current change (%, negative = inhibition) at 10uM” value is listed as -33.4%. Take `CC(C)(C)OC(=O)N1CCC[C@H]1c1nnc(SCc2ccc(Cl)cc2Cl)o1`: the “hERG current change (%, negative = inhibition) at 10uM” value is 4.07%. The same measure for `C=CCn1c(SCC(=O)Nc2c(C)n(C)n(-c3ccccc3)c2=O)nc2scc(-c3ccccc3)c2c1=O`: -56%; for `Cc1cc(Sc2nc(N(C)C)nc(N(C)C)n2)nc(Cl)n1`: -5.97%; for `COc1ccc(C(=O)NC2CCCc3ccccc32)c(OC)c1OC` (stereo not shown): -45.7%.

Turning to `COc1ccc(/C=C2/CC/C(=C\c3ccc(OC)c(OC)c3OC)C2=O)c(OC)c1OC`, the “hERG current change (%, negative = inhibition) at 10uM” value was -7.85%. Under `CCOc1ccccc1-n1c(SCC(=O)N2CCOCC2)nc2ccccc2c1=O` stands -3.73%; under `Cc1ccc2nc(-c3ccncc3)cc(C(=O)NCCc3ccc(F)cc3)c2c1`, 10.5%. The same measure for `NC(=O)COC(=O)c1ccccc1SCC(=O)NC1CCCCCC1`: 23.9%; for `CCN(C(=O)Oc1ccccc1)c1ccc(C(O)(C(=O)OC)C(F)(F)F)cc1` (stereo not shown): -2.44%; for `COc1ccc(CN2CCCC(C(=O)N(C)Cc3ccccc3)C2)cc1OC.O=C(O)C(=O)O` (stereo not shown): -71.1%. Under `COc1cccc(CC2(CO)CCCN(Cc3ccccc3Cl)C2)c1` (stereo not shown) stands -31.2%; under `Cc1ccsc1/C=N/n1c(C2CCCCC2)n[nH]c1=S`, 8.95%. As for `COc1cccc(C(=O)NNC(=O)C2CCCO2)c1` (stereo not shown), the “hERG current change (%, negative = inhibition) at 10uM” value is reported as 15.3%. For the molecule `Cc1cc(C)c(NC(=O)Cn2cnc3c(oc4ccccc43)c2=O)c(C)c1`, the “hERG current change (%, negative = inhibition) at 10uM” value was determined as 25.7%. Under `CCOc1ccc(N2C(=O)CC(Sc3nc(O)c(CC)c(=O)[nH]3)C2=O)cc1` (stereo not shown) stands 13.1%; under `NC(N)=Nc1nc2ccc([N+](=O)[O-])cc2[nH]1`, 13%; under `O=C(COC(=O)c1ccc2ccccc2c1)Nc1ncc(C(F)(F)F)cc1Cl`, -31.3%. The same measure for `Cc1ccc(C(=O)N/C(=C/c2ccco2)C(=O)N2CCCCCC2)cc1`: 26.6%. As for `Cc1ccc(CNC(=O)CNS(=O)(=O)c2ccc3nc(C)sc3c2)cc1`, the “hERG current change (%, negative = inhibition) at 10uM” value is given as -64.6%. Under `Nc1c(N=O)c(=O)[nH]c(=O)n1-c1ccccc1` stands 10.2%; under `Cc1ccccc1NC(=O)Oc1cccc(OC(=O)c2ccccc2)c1`, 7.06%.

Take `Cc1ccccc1NC(=O)CC1c2ccccc2CC(C)(C)N1C` (stereo not shown): the “hERG current change (%, negative = inhibition) at 10uM” value turned out to be 4.03%. The same measure for `Cc1ccc(S(=O)(=O)N(C)c2c(C)ccc(S(=O)(=O)NC(C)(C)C)c2C)cc1`: 9.67%. Under `CCOC(=O)c1nnn(-c2nonc2N)c1CN1CCc2ccccc2C1` stands -10.2%; under `COc1ccc(C2(C(=O)Nc3ccccc3)CCOCC2)cc1`, -14.2%. As for `COc1cccc(CN2CCN(Cc3cc4ccccc4o3)CC2CCO)c1` (stereo not shown), the “hERG current change (%, negative = inhibition) at 10uM” value is reported as -10.7%. For the molecule `CCOC(=O)c1sc(-c2ccccc2)nc1C`, the “hERG current change (%, negative = inhibition) at 10uM” value is 8.42%. Turning to `CN(C)S(=O)(=O)c1ccc(C(=O)Oc2cc(=O)[nH]c3ccccc23)cc1`, the “hERG current change (%, negative = inhibition) at 10uM” value turned out to be 15.4%. Take `COc1cc(NC(=S)NCc2cccs2)cc(OC)c1`: the “hERG current change (%, negative = inhibition) at 10uM” value was -17.9%. As for `O=C1NC(=O)/C(=C\c2ccsc2)N1`, the “hERG current change (%, negative = inhibition) at 10uM” value is 10.6%.

For `CCCCc1c(C)nn(-c2nnc3c4ccccc4n(C)c3n2)c1C`, the “hERG current change (%, negative = inhibition) at 10uM” value is -4.7%. For the molecule `CC(C)c1ccc(NC2(C#N)C(=O)Nc3ccccc32)cc1` (stereo not shown), the “hERG current change (%, negative = inhibition) at 10uM” value was determined as 1.93%. Take `CCCn1c(=N)c(S(=O)(=O)c2ccccc2)cc2c(=O)n3ccccc3nc21`: the “hERG current change (%, negative = inhibition) at 10uM” value is reported as -15.6%. Under `Cc1cccc(OCC(=O)Nc2ccc(N3CCN(S(C)(=O)=O)CC3)cc2)c1` stands 12%. For `O=C(CSc1nnc2ccccn12)Nc1cccc(-c2nc3ccccc3s2)c1`, the “hERG current change (%, negative = inhibition) at 10uM” value was found to be 10.6%. In the case of `O=C(COc1ccc(C(=O)c2ccccc2)cc1)NC1CCCCC1`, the “hERG current change (%, negative = inhibition) at 10uM” value amounted to 0.246%. Under `CCOC(=O)c1c(NC(=O)C(C)Sc2c[nH]c3ccccc23)sc2c1CCC2` (stereo not shown) stands 18%. With `CC(C)C1(CCNC(=O)c2cccs2)CCOC(C)(C)C1` (stereo not shown), the “hERG current change (%, negative = inhibition) at 10uM” value is on record as 3.64%.

Take `CCCCn1c(N)c(N(CC)C(=O)CCc2ccccc2)c(=O)[nH]c1=O`: the “hERG current change (%, negative = inhibition) at 10uM” value came to 17.9%. Under `O=C(/C=C/c1ccc2c(c1)OCO2)c1c(O)n(CCc2ccccc2)c(=O)[nH]c1=O` stands 1.79%; under `Cc1sc2ccccc2c1CC1=NCCN1.O=C(O)C(=O)O`, -24.1%.

Turning to `CCN(CC1COc2ccccc2O1)C(=S)Nc1ccccc1` (stereo not shown), the “hERG current change (%, negative = inhibition) at 10uM” value is -7.27%. The same measure for `Clc1cccc(CSc2nc3ccncc3[nH]2)c1`: -18.4%; for `Cc1cc(S(=O)(=O)n2ccnc2)c(Cl)cc1Cl`: 25.1%. Under `CC(=O)Nc1ccc(S(=O)(=O)N(C)CC(=O)N(C)Cc2sccc2C)cc1` stands -8.15%. The same measure for `COc1ccc(CCNc2nc(=O)[nH]nc2C)cc1OC`: 2.35%; for `CCOC(=O)c1ccc(Nc2nc(-c3cccnc3)nc3ccccc23)cc1`: -10.8%; for `COC(=O)c1ccc(OCC(=O)N2CCCc3ccccc32)cc1`: 8.02%.

Regarding `CNS(=O)(=O)c1ccc2c(c1)NC(=O)C1CCCN21` (stereo not shown), the “hERG current change (%, negative = inhibition) at 10uM” value turned out to be 10.3%. Under `O=C(O)c1ccc(OCCN2CCCC2=O)cc1` stands 18.1%; under `O=C(NC1CCCC1)C(=O)c1c[nH]c2ccccc12`, 3.62%; under `CCOC(=O)Cn1c(=O)c2c(nc(Br)n2Cc2ccccc2Cl)n(C)c1=O`, 2.47%. Under `N#CCN1CCN(CC(=O)Nc2cccc3ccccc23)CC1` stands 18.4%. For the molecule `CCc1nnc(NC(=O)CCn2cnc3ccccc3c2=O)s1`, the “hERG current change (%, negative = inhibition) at 10uM” value is 1.4%. Consider `O=C1C(=O)N(CCOCCO)C(c2ccccn2)/C1=C(\O)c1ccccc1` (stereo not shown), for which the “hERG current change (%, negative = inhibition) at 10uM” value is listed as 7.48%. Under `O=C(NCC1COc2ccccc2O1)C1CCN(S(=O)(=O)c2ccc(Cl)cc2)CC1` (stereo not shown) stands -41.1%; under `O=C(COC(=O)COc1ccc(Cl)cc1)NC1CC1`, 4.37%. Under `O=C(CN(C1CCCCC1)S(=O)(=O)c1ccccc1)N1CCCC1` stands -59.3%; under `O=C(COC(=O)/C=C/c1cccc(Cl)c1)NC1CC1`, 10.1%; under `CN(CC(=O)Nc1ccccc1)CC(=O)Nc1ccccc1Cl`, -3.63%.
